Among all 310,000 compounds or so, about 14,000 (4.5%) showed an effect of 50% or more. The effect is printed as a negative number. Some of the results follow.
Molecular target: human ether-à-go-go-related gene (hERG) potassium channel (human, UniProt Q12809)
Assay: primary screen, population patch clamp on CHO cells stably expressing hERG
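Further: peak tail current of the secondary pulse compared with the same well before compound.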

Chain of human ether-à-go-go-related gene (hERG) potassium channel (Q12809 whole entry, looked up): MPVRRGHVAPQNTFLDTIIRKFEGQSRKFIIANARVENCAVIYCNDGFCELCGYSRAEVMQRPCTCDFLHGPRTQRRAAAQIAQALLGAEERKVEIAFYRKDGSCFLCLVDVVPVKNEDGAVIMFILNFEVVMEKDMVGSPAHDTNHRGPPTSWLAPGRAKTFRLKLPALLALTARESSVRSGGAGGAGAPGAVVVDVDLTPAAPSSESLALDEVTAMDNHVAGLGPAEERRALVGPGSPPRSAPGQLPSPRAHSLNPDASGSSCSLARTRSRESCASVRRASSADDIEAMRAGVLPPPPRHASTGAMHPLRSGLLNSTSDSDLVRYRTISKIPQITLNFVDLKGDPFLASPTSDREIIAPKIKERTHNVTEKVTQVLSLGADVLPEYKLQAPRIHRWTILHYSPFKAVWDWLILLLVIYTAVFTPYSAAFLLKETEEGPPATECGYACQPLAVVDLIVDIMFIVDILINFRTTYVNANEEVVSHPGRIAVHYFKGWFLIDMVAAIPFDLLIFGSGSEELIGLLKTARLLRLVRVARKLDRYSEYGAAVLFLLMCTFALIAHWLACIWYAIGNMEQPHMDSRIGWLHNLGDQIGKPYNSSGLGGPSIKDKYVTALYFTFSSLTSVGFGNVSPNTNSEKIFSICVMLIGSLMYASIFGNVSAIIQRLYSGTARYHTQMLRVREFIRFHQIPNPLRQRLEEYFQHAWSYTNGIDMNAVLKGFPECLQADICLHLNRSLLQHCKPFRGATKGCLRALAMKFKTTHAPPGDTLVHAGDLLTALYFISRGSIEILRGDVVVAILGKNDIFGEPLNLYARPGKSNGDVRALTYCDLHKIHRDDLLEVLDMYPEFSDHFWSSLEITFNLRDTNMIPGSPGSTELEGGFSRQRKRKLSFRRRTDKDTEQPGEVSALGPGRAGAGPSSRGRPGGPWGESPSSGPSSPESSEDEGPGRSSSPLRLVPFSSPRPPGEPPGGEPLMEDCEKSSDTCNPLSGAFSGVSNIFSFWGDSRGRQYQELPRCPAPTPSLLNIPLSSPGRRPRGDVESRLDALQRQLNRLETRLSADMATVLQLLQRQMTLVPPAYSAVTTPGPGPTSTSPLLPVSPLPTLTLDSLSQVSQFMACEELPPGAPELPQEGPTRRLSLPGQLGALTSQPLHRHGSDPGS

| Structure (SMILES) | hERG current change (%, negative = inhibition) at 10uM [%] |
| --- | --- |
| CC(CNC(=O)CCn1c(=O)c2cccn2c2ccc(F)cc21)c1ccccc1 (centres unmarked) | 4.23 |
| COc1ccc(N2C(=O)CC(SCCc3nc4ccccc4[nH]3)C2=O)cc1 (centres unmarked) | -32 |
| O=C(CCc1nnc(CCc2ccccc2)o1)N1CCCCC1CCn1cccn1 (centres unmarked) | -51.1 |
| Cc1ccc(C(=O)N2N=C(c3ccc(NS(C)(=O)=O)cc3)CC2c2cccs2)cc1 (centres unmarked) | -23.1 |
| Cc1nn(C)c(C)c1NC(=O)COc1ccc(Cl)cc1 | -4.78 |
| Cc1ccc(F)cc1NC(=O)c1ccc(NS(=O)(=O)c2ccc(Br)s2)cc1 | -70 |
| CCOC(=O)c1ccccc1NC(=O)c1cccc(F)c1 | 1.04 |
| CC(C)NC(=O)c1[nH]nc2c1CCc1ccccc1-2 | -2.37 |
| Cc1ccc(-n2nc3c(=O)n(C(C)C(=O)NCCCc4ccccc4)nc(C)c3c2C)cc1 (centres unmarked) | -55.2 |
| CCCC(O)(CCN1CCOCC1)c1ccc(Cl)cc1 (centres unmarked) | 3.77 |
| Cc1cc(C)cc(NC(=O)C(OC(=O)c2sccc2C)c2ccccc2)c1 (centres unmarked) | 13.5 |
| CCOC(=O)c1c(-c2cccc([N+](=O)[O-])c2)csc1N | -15.6 |
| c1ccc(-c2cc(-c3nnco3)c3ccccc3n2)nc1 | 18.2 |
| COc1ccc(OC)c(-c2csc(NC(=O)Cc3ccccc3)n2)c1 | -13.7 |
| CCOC(=O)N1CCN(C(=O)c2cn(CC)c3ccc(S(=O)(=O)N4CCOCC4)cc3c2=O)CC1 | 6.31 |
| CCCN(C(=O)/C=C/c1nc2ccccc2s1)C1CCS(=O)(=O)C1 (centres unmarked) | -19.7 |
| O=C(Nc1nnc(SCc2c(Cl)cccc2Cl)s1)C1CCCO1 (centres unmarked) | -22.9 |
| CCn1nc(C(=O)OC(C(=O)c2c[nH]c3ccccc23)c2ccccc2)c2ccccc2c1=O (centres unmarked) | 6.71 |
| Br.N=C(N)SCc1nc2ccccc2c(=O)n1-c1ccccc1 | -0.619 |
| Nc1cccc(-c2csc(-n3ncc(C(=O)O)c3C(F)(F)F)n2)c1 | 8.11 |
| O=C(NCCc1ccccc1F)C1CCC(=O)N(Cc2ccccc2F)C1 (centres unmarked) | 13.2 |
| CCN(C(=O)CSc1nnc2ccccn12)c1c(N)n(Cc2ccccc2)c(=O)[nH]c1=O | 14.5 |

| Structure (SMILES) | hERG current change (%, negative = inhibition) at 10uM [%] |
| --- | --- |
| Cc1ccc(C(=O)O)cc1-n1c(C)cc(C=O)c1C | 28.2 |
| O=c1c2c([nH]c3ccccc13)CCCCC2 | -7.34 |
| O=C1COc2ccc(S(=O)(=O)N3CCN(c4cccc(Cl)c4)CC3)cc2N1 | 8.44 |
| N/C(=N\OC(=O)c1ccccc1Cl)c1ccccc1 | -16.2 |
| Cc1cc(C)n(-c2ccc(Cl)c(C(=O)Nc3ccc(-c4nnc5n4CCCCC5)cc3)n2)n1 | 2.05 |
| COc1ccc(-n2c(C)c(C(=O)O)c3cc(OC)c4ccccc4c32)cc1 | 10.5 |
| CCOC(=O)c1cnn2cc(-c3[nH]ncc3[N+](=O)[O-])cnc12 | 13.8 |
| O=C(Cn1nnc2ccccc2c1=O)NCCc1ccc(F)cc1 | 6.36 |
| COCCCNC(=O)Cn1c(=O)n(Cc2ccccc2Cl)c(=O)c2cc(OC)c(OC)cc21 | 9.48 |
| CC(C)C(=O)Nc1sc2c(c1C(N)=O)CCN(Cc1ccccc1)C2.Cl | -108 |
| CCOC(=O)c1c(NC(=O)C2C3C=CC(C3)C2C(=O)O)sc2c1CC(C)CC2 (centres unmarked) | 19.6 |
| N#CC1=C(N)NC(SCc2ccccc2)=C(C#N)C12CCCC2 | -20 |
| O=c1cnnc(SCc2ccc([N+](=O)[O-])cc2)[nH]1 | -41 |
| O=C(O)CC(c1cccc2ccccc12)n1cccc1 (centres unmarked) | 6.08 |
| Cc1ccc2nc(SCc3nnc(-c4ccccc4)o3)[nH]c2c1 | -17.4 |
| COc1ccc(CNC(=O)COC(=O)c2cncc(Br)c2)cc1 | -7.49 |
| COc1ccc(-c2nnn(CC(=O)N(CCCO)C(C(=O)NC3CCCC3)c3ccncc3)n2)cc1 (centres unmarked) | 12.3 |
| CN(C)/C=C/C(=O)/C=C/c1cn(-c2ncc(C(F)(F)F)cc2Cl)c2ccccc12 | 5.91 |
| Cc1nn(Cc2c(Cl)cccc2Cl)c(C)c1NC(=O)c1cnn2c(C(F)F)cc(-c3ccccc3)nc12 | 13.6 |
| COc1cccc(CN(C(=O)COc2ccccc2[N+](=O)[O-])C2CCS(=O)(=O)C2)c1 (centres unmarked) | -42 |
| CCOC(=O)c1sc(NC(=O)c2cccc(S(=O)(=O)N3CCc4ccccc43)c2)c(C#N)c1C | 3.25 |
| O=C(Nc1ccc2ccccc2n1)c1ccccc1 | 1.09 |

| Structure (SMILES) | hERG current change (%, negative = inhibition) at 10uM [%] |
| --- | --- |
| COc1ccc(OCC(O)Cn2c(=N)n(CCN3CCOCC3)c3ccccc32)cc1.Cl (centres unmarked) | -34.7 |
| COc1ccc(Cn2c(SC)nc3ccccc32)cc1[N+](=O)[O-] | 13.9 |
| COc1cc(OC)c2c(C)cc(=O)oc2c1C(CCN1CCN(c2ccccc2)CC1)c1ccc2c(c1)OCO2 (centres unmarked) | -11.1 |
| CC1=C(C)CC2C(=O)N(Cc3ccccc3)C(=O)C2C1 (centres unmarked) | -1.45 |
| O=C(Cc1ccccc1)NCc1ccc2c(c1)OCO2 | 3.22 |
| O=C(/C=C/c1ccccc1)NCCSCc1ccccc1Cl | 14.9 |
| Cn1c(=O)c2c(nc(Oc3ccccc3N)n2C)n(C)c1=O | 27.6 |
| O=C(NCc1ccccc1)c1ccc(N2C(=O)C3CCCCC3C2=O)cc1 (centres unmarked) | 7.98 |
| COc1ccc(C(=O)N2CCN(C3CCN(Cc4ccccc4)CC3)CC2)cc1OC | -42.8 |
| COC(=O)COc1ccc(C2NC(=O)NC(C)=C2C(=O)NCc2ccccc2)cc1OC (centres unmarked) | -2.92 |
| CCOC(=O)c1c(-c2ccc(C)o2)csc1NC(=S)NC(=O)c1ccc(F)cc1 | 2.75 |
| CCOC(=O)N1CCN(C(=O)CCCn2c(=S)[nH]c3ccc(Br)cc3c2=O)CC1 | -46.7 |
| N#Cc1cc2c(nc1SCc1ccncc1)CCC2 | -21.9 |
| CCC(C)N(C(=O)COC(=O)CCc1c[nH]c2ccccc12)C1CCS(=O)(=O)C1 (centres unmarked) | -10.4 |
| CCCOc1ccc(S(=O)(=O)N2CCCC2)cc1[N+](=O)[O-] | -30.1 |
| CCOC(=O)C(CC)Sc1ccc2nnc(-c3cccnc3)n2n1 (centres unmarked) | -47.7 |
| N#C/C(=C\c1ccc(OCc2ccccc2)cc1)C(=O)Nc1ccc(C(=O)O)cc1 | 8.19 |
| Cc1nc2nc(SCC(=O)NCCCN3CCCC(C)C3)nn2c(C)c1Cc1ccccc1Cl (centres unmarked) | 2.15 |
| Cc1ccc(NC(=S)NCCc2ccc(S(N)(=O)=O)cc2)cc1C | -7.61 |
| COc1ccccc1NC(=O)C1=C(C)NC(=O)NC1c1ccccc1F (centres unmarked) | 2.86 |
| CCCn1c(Nc2cccc(OC)c2)nc2ccccc21 | 14.8 |
| CC1CCCCC12NC(=O)N(CC(=O)NC1CCCc3ccccc31)C2=O (centres unmarked) | 0.596 |

| Structure (SMILES) | hERG current change (%, negative = inhibition) at 10uM [%] |
| --- | --- |
| N#Cc1ccccc1CSc1nc2ccsc2c(=O)n1Cc1ccccn1 | -10.9 |
| C=CCn1c(N2CCCC2)nc2c1c(=O)n(C)c(=O)n2C | 10.3 |
| CC(/C=C\C=C\c1ccccc1)=N\NC(=O)c1cncc(Br)c1 | 0.6 |
| COCCCNc1nc2c(c(=O)[nH]c(=O)n2C)n1CC(O)COc1ccccc1C (centres unmarked) | -7.62 |
| O=C(CCc1nnc(-c2ccc(-c3ccccc3)cc2)o1)N1CCCCC1 | -4.15 |
| Cc1ccc(NC(=O)/C(=C\c2cccnc2)NC(=O)c2ccccc2)cc1 | -46 |
| CCOC(=O)N1CCN(C(=O)c2ccccc2SCC(=O)NCC2CCCCC2)CC1 | -27.9 |
| O=C(CCCc1nc(-c2ccc(Cl)cc2)no1)NC1CCCCC1 | 20.2 |
| COc1cc(/C=C/c2nc3ccccc3c(=O)[nH]2)ccc1OC(F)F | 11.3 |
| CCCn1c(O)c(/C=C2\C=NN=C2c2ccccc2)sc1=S | 7.93 |
| CN(C)/C=C1/C=C(c2ccccc2)OC1=O | 12 |
| Cc1cnn(-c2cc(Oc3ccccc3)ncn2)c1 | -11.8 |
| O=C(C1CCN(S(=O)(=O)N2CCOCC2)CC1)N1CCOCC1 | -6.69 |
| O=C(/C=C/c1ccccc1)Nc1cccnc1Oc1ccccc1F | -1.99 |
| Cc1nc(CN(C)C(=O)c2cc(COc3c(F)cccc3F)on2)cs1 | 11.5 |
| CCN1/C(=C/C=C/C=C/C=C/c2sc3ccccc3[n+]2CC)Sc2ccccc21.[I-] | -49.5 |
| CCC(=O)Nc1ccccc1C(=O)OCC(=O)Nc1ccc(S(N)(=O)=O)cc1 | -2.28 |
| COCCCNC(=S)NC(=O)c1ccc([N+](=O)[O-])cc1 | -8.65 |
| CCc1cc(=O)oc2cc(OC(=O)c3ccco3)ccc12 | 15.5 |
| COc1cccc(N2CCN(S(=O)(=O)c3ccc4nc(-c5ccccc5)[nH]c4c3)CC2)c1 | 12.2 |

From article PMC4336329 (PLoS ONE, 2015)
